Data on 56 molecules can be found in paper PMC4336329 (PLoS ONE, 2015).

About 14,000 (4.5%) of roughly 310,000 compounds showed an effect of 50% or more. Effects have a minus sign here. The list shows a part of the results.
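Also: peak tail current of the secondary pulse compared with the same well before compound.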

The assay deals with human ether-à-go-go-related gene (hERG) potassium channel (human, UniProt Q12809). Put plainly: primary screen, population patch clamp on CHO cells stably expressing hERG.
Chain of human ether-à-go-go-related gene (hERG) potassium channel (Q12809 whole entry, looked up): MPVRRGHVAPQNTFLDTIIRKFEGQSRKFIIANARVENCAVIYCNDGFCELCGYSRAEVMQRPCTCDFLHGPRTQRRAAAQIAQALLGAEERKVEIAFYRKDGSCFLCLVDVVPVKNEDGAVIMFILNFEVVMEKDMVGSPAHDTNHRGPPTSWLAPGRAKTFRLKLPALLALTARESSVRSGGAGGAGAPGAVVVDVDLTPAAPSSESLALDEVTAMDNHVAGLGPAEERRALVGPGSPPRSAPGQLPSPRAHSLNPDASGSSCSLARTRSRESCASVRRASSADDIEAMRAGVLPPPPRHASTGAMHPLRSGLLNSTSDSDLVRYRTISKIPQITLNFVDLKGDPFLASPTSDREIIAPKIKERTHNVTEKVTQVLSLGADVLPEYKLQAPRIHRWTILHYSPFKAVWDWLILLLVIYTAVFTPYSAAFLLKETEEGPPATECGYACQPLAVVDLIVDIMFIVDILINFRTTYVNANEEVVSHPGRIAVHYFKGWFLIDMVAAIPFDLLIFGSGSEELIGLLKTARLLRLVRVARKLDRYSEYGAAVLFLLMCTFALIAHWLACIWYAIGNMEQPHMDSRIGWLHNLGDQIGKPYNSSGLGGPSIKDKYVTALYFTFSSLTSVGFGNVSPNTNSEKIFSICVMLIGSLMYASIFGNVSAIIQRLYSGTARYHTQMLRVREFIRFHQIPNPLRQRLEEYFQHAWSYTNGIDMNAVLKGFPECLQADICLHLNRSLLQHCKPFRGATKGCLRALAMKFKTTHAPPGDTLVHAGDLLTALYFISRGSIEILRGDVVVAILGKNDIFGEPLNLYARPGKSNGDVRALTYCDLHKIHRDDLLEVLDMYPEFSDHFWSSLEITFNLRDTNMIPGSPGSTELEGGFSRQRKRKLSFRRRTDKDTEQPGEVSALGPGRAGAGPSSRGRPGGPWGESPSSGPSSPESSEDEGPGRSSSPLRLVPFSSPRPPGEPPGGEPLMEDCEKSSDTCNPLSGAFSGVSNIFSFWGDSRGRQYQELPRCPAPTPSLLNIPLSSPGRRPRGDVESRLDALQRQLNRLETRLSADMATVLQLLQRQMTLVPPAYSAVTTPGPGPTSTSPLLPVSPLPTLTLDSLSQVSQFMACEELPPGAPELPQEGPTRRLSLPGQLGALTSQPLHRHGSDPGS
`Cc1cccc2c(CCNC(=O)c3ccc([N+](=O)[O-])cc3)c[nH]c12`: the “hERG current change (%, negative = inhibition) at 10uM” value is given as -2.68%.
As to `Br.C=CCn1c(=N)n(CC(=O)c2ccccc2)c2ccccc21`, the “hERG current change (%, negative = inhibition) at 10uM” value is listed as -23.9%.
The value for `Cc1ccc(S(=O)(=O)CCC(=O)NC2CCCC2)cc1` was 12.4%; that for `O=C(NCCNC(=O)c1ccccc1F)c1ccccn1` was 18.1%.
Then `COc1ccc(NC2CCCN(C(=O)c3csc(C(C)C)n3)C2)cc1OC` (centres unmarked), with 4.99%; and `COc1ccc2nc(NC(=O)CSc3nnnn3C)sc2c1`, with 29.3%; and `CS(=O)(=O)c1ccc2nc(NC(=O)c3ccc(N4C(=O)CCC4=O)cc3)sc2c1`, with 6.3%.
The value for `CCCCCCCCN1[C@@H](CC(=O)OCC)c2cc(C(F)(F)F)ccc2S1(=O)=O` was -22.5%; that for `Cc1ccc(NC(=O)CN(C)S(=O)(=O)c2cccc3cccnc23)cc1` was -15.6%; that for `CN(C)S(=O)(=O)c1ccc2nnn(O)c2c1` was 3.43%.
Consider `CCN(CC(=O)Nc1ccccc1C(F)(F)F)C(=O)c1ccccc1SCC(=O)N1CCCC1`, for which the “hERG current change (%, negative = inhibition) at 10uM” value was found to be 5.87%.
The value for `CC1CCN(S(=O)(=O)c2ccc3c(c2)N(C)C(=O)CC(=O)N3C)CC1` was -1.1%.
Then `Brc1cccc(-c2nnc3n2CCCCC3)c1`, with 13%; and `CC1(C)Cc2nc3oc4c(NCCCN5CCOCC5)ncnc4c3cc2CO1`, with -14.5%.
The value for `Cc1cccc(C(=O)NCC(=O)NC2CCC(C)CC2)c1` (centres unmarked) was 4.32%; that for `CCOc1cc(N2CCOCC2)c(OCC)cc1NC(=O)c1ccco1` was -16.3%.
Take `CSc1nnc(N2C(=O)C(O)=C(C(=O)c3ccco3)C2c2cccc(Cl)c2)s1` (centres unmarked): the “hERG current change (%, negative = inhibition) at 10uM” value is 7.39%.
The value for `CCC(=O)Nc1ccc(S(=O)(=O)Nc2cc(C)on2)cc1` was 18.2%; that for `Cc1ccc(C)c(OCC(=O)N(Cc2nnc(-c3ccccc3Cl)o2)C2CC2)c1` was -20.9%; that for `O=C(O)C1CCN(C(=O)NC2CCCCC2)CC1` was 2.09%.
`COc1ccc(CCN2CC(O)=C(c3nc(C)cs3)C2=N)cc1OC`: the “hERG current change (%, negative = inhibition) at 10uM” value is given as -21.8%.
Then `NS(=O)(=O)c1ccc(N2CCNCC2)cc1`, with 9.82%; and `COCCCC1CCN(C(=O)C2CCC(=O)N(C3CCCC3)C2)CC1` (centres unmarked), with 13.5%.
The value for `O=C1C2CCCN2C(c2ccc(F)cc2)N1c1ccc(Cl)cc1` (centres unmarked) was -10.5%.
Then `CCOC(=O)C(C)C(C)=O` (centres unmarked), with 18.5%.
`CC(C)C[C@H](NC(=O)c1nc[nH]c1C(=O)N1CCc2ccccc2C1)C(=O)OC(C)(C)C`: the “hERG current change (%, negative = inhibition) at 10uM” value is given as -9.9%.
As for `CC1CCCCN1Cc1nc2c(c(=O)n(C)c(=O)n2C)n1CCc1ccccc1` (centres unmarked), the “hERG current change (%, negative = inhibition) at 10uM” value was -23.2%.
Then `NC(=O)Cc1ccc(Nc2nnc(-c3ccc(O)cc3)c3ccccc23)cc1`, with 17.7%; and `N#CC1=C2SCN(Cc3ccco3)CN2C(=O)CC1c1c(F)cccc1Cl` (centres unmarked), with 13.4%; and `Cc1ccc(C)c(N2CCN(C(=O)c3cn(C)c4ccc(S(=O)(=O)N(C)C)cc4c3=O)CC2)c1`, with -4.85%.
With `CCSc1c(-c2ccccc2)nc2c(C)cccc2c1C(=O)O`, the “hERG current change (%, negative = inhibition) at 10uM” value is recorded as 12.4%.
In the case of `CCOc1ccccc1C(=O)Nc1cc(Cl)ccc1O`, the “hERG current change (%, negative = inhibition) at 10uM” value is 14.7%.
The value for `Cc1ccc(-c2noc(CN(C(=O)Cc3ccccc3)C(C)C)n2)cc1` was -8.68%; that for `O=C(COc1ccc(C(=O)Nc2ccc(Cl)cc2)cc1)NCc1ccccc1` was 0.389%.
Then `O=c1c2sccc2n(Cc2cc(=O)n3ccccc3n2)c(=O)n1-c1ccccc1`, with -4.1%.
Then `CC1CCCN(c2nc3c(c(=O)[nH]c(=O)n3C)n2Cc2ccccc2Cl)C1` (centres unmarked), with -8.17%.
As to `CSc1ccccc1NC(=O)CN(c1cc(C)cc(C)c1)S(C)(=O)=O`, the “hERG current change (%, negative = inhibition) at 10uM” value is 1.05%.
On to `CNc1nc(Sc2cccc(C(F)(F)F)c2)cc(C(F)(F)F)n1`, for which the “hERG current change (%, negative = inhibition) at 10uM” value was 31%.
Consider `Cc1cc(C)cc(NC(=S)Nc2ccccn2)c1`, for which the “hERG current change (%, negative = inhibition) at 10uM” value is given as -8.14%.
For `COc1cccc(C(=O)Nc2c3c(nn2-c2cccc(C)c2C)CS(=O)(=O)C3)c1OC`, the “hERG current change (%, negative = inhibition) at 10uM” value was -47.5%.
Then `CN1c2ccccc2Oc2c(c(=O)n(C)c(=O)n2C)C1c1cccc([N+](=O)[O-])c1` (centres unmarked), with -15.5%; and `CN(C(=O)COC(=O)c1cccs1)c1c(N)n(Cc2ccccc2)c(=O)[nH]c1=O`, with -10.8%.
The value for `CCc1cccc(NC(=O)CCc2nc(-c3cccs3)no2)c1` was -12.4%; that for `COc1ccccc1NC(=O)C12CCC(C)(C(=O)C1)C2(C)C` (centres unmarked) was 14.8%.
For the molecule `O=C(COC(=O)C1CCN(S(=O)(=O)c2cccs2)CC1)Nc1ccc(F)cc1F`, the “hERG current change (%, negative = inhibition) at 10uM” value is reported as -39.2%.
Then `CCCn1c(-c2cc(OC)c(OC)c(OC)c2)nc2c1c(=O)[nH]c(=O)n2Cc1ccccc1`, with 5.09%; and `Cc1nnc(SC(C)C#N)n1-c1ccccc1` (centres unmarked), with 12.5%; and `CS(=O)(=O)N(CC(=O)NCCSCc1ccccc1Cl)c1ccccc1F`, with -35.4%.
Turning to `O=C(NCC(F)(F)F)Nc1nnc(C(F)(F)F)s1`, the “hERG current change (%, negative = inhibition) at 10uM” value is recorded as -1.37%.
Consider `CC(C)CCN1CC(O)=C(c2nc(-c3ccc(Cl)cc3)cs2)C1=N`, for which the “hERG current change (%, negative = inhibition) at 10uM” value is recorded as 14.1%.
In the case of `Cc1sc(NC(=O)c2ccco2)c(CN2CCN(c3ccccc3)CC2)c1C`, the “hERG current change (%, negative = inhibition) at 10uM” value is recorded as 7.18%.
The value for `CCCCC1=CC2=C(c3ccco3)C(=O)C(C)(OC(=O)c3ccc(OC)cc3)C(=O)C2=CN1CCN1CCOCC1` (centres unmarked) was 5.5%; that for `O=C(NCc1ccco1)c1c(F)c(F)c(F)c(C(=O)NCc2ccco2)c1F` was 17.5%; that for `Cn1nnnc1SCC(=O)NCC(=O)c1ccccc1` was -9.12%.
Consider `O=C(COC(=O)c1ccc[n+]([O-])c1)Nc1ccc(Cl)cc1[N+](=O)[O-]`, for which the “hERG current change (%, negative = inhibition) at 10uM” value is -12.4%.
Then `CCCCNC(=O)CCn1c(=O)c2ccccc2n(Cc2cc(C)ccc2C)c1=O`, with 6.37%.
